Experimental data from the supplement of paper PMC3334620.
Whole data set: some 33,000 sequences, median “E-score (-0.5 to 0.5)” near -0.032, cut for the highest 2% near 0.36. This is one part of the list.

target: T1, Sko1 (UniProt Q02100); experiment: PBM E-score (8-mer binding enrichment) (E-score (-0.5 to 0.5)); higher = stronger / more preferred TF binding; most listed sequences are background and not binding sites; details: protein concentration: 200 nM; construct: GST-full length
T1 sequence: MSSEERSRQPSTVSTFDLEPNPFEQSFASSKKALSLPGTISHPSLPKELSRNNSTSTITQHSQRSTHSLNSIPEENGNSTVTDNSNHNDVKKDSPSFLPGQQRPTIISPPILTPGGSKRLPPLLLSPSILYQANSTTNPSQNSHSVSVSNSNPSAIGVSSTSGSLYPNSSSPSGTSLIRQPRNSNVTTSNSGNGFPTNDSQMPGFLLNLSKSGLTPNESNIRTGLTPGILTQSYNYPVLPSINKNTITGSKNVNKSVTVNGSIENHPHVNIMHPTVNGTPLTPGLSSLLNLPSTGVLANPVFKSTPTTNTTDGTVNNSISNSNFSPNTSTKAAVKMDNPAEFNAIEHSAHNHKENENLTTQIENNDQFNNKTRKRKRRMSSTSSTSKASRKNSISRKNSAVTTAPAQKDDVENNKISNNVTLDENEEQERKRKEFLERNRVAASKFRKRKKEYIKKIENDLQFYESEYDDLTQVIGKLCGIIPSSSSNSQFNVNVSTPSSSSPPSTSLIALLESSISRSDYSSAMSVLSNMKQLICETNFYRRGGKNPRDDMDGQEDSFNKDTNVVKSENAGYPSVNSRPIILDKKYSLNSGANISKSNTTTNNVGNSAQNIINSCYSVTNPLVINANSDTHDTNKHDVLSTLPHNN
In short: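 Yeast transcription factors, full-length or as DNA-binding domains, were expressed with a GST tag using PURExpress in vitro transcription/translation. At about 100-200 nM they were applied to universal all-10-mer Agilent arrays, double-stranded by primer extension on fresh or once-stripped slides. Fluorescent anti-GST detected bound protein, and masliner normalised the scans. E-scores for ungapped eight-base words, pooled with reverse complements, came from the Universal PBM Analysis Suite.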

Row | Sequence | PBM E-score
1 | GGTGGTTA | -0.0717
2 | AACACAGA | 0.111
3 | CACGGCGC | -0.116
4 | ACGGCTAT | -0.019
5 | AAAATTGG | -0.0542
6 | GGGCTCGA | -0.105
7 | CCGTTGTC | 0.0817
8 | GAGCACGC | 0.1
9 | AAAGTCGA | -0.173
10 | ACCGTCTA | -0.278
11 | AACACGCT | -0.0355
12 | AATCATAC | 0.253
13 | CTGTGTCC | -0.0444
14 | ACTCTAGC | -0.198
15 | CTTTTCTC | -0.011
16 | ACTCGGTA | -0.073
17 | AAGATCAG | -0.146
18 | TAGCCCTA | -0.198
19 | CCTATTCG | -0.222
20 | CGCGCAGC | -0.0457
21 | CTCTGATA | 0.0155
22 | CAAGTCTA | -0.0923
23 | TAGGGCGA | -0.162
24 | TAATGAGA | 0.163
25 | CCTGGTCC | -0.363

Row | Sequence | PBM E-score
26 | CCCTCCGA | -0.216
27 | AATCTGAC | 0.138
28 | AGTGATTA | 0.126
29 | CATACTTA | 0.0874
30 | GGCTCTCA | -0.188
31 | CGACTATC | -0.0391
32 | ATAGAAAT | 0.132
33 | ATCCCCAA | -0.0184
34 | AGGGTGGA | -0.198
35 | ACTTACGA | 0.309
36 | ATAACCTC | -0.0134
37 | CAGTGTAG | -0.0539
38 | ATAGTATG | 0.179
39 | CACCCGCC | -0.0697
40 | CCCTGGCA | -0.34
41 | TAGGAGGA | -0.0884
42 | ACCTCAAA | 0.0158
43 | GGAACTAC | -0.033
44 | CGGGAAGC | -0.274
45 | GAAAAACA | -0.00811
46 | GCTTTGCA | -0.122
47 | CTGGCGCA | -0.184
48 | CTTACGGC | -0.277
49 | AAACCGGA | -0.103
50 | AACCTTTA | -0.0865

Row | Sequence | PBM E-score
51 | CCGTCCTC | -0.288
52 | AACACCCC | -0.224
53 | CTTTTAGA | 0.0647
54 | CCAAGTAA | 0.133
55 | GTGCCCAC | -0.0942
56 | GACACAGC | -0.0494
57 | CCCCCGCC | -0.431
58 | AGAGTTAT | -0.071
59 | GACGAGTA | 0.174
60 | AACGCTAG | -0.185
61 | CCATCATC | 0.0168
62 | ACGTCTCT | 0.313
63 | CGATGTCA | 0.275
64 | AGAACGAG | 0.0155
65 | TCCAGGCA | 0.0851
66 | ATATCAAC | 0.141
67 | ATATATAT | 0.235
68 | GCTCACAA | -0.017
69 | CGTCCAAC | 0.147
70 | ACCGCGTG | -0.0861
71 | CTAGGCTC | -0.192
72 | AAGACACA | 0.0903
73 | GTCCCGAA | -0.294
74 | ACCGGGTA | -0.112
75 | CAGCATGA | -0.0784

Row | Sequence | PBM E-score
76 | AAATATCT | -0.00788
77 | AGTCGCAG | -0.204
78 | TCCTACAA | 0.0613
79 | GGTTGGAA | -0.26
80 | ACCAGGCT | -0.243
81 | GCCCCGTA | -0.181
82 | CAACCCAA | 0.084
83 | GGCCACTA | -0.0906
84 | TGCCCACA | -0.164
85 | ATGAGTAG | 0.0656
86 | CGAGACAG | -0.0122
87 | ACGTTGTC | 0.326
88 | GCCCTAGA | -0.172
89 | CATGAGCG | 0.121
90 | GACCTATC | -0.275
91 | AATAAACT | 0.0719
92 | GAAAGTTA | 0.221
93 | AAGCACGC | 0.141
94 | ATGGTCCG | 0.0419
95 | CCCCCCGA | -0.293
96 | GTCCTGCA | -0.184
97 | ACATTTCG | 0.137
98 | CAAGAAAC | 0.101
99 | CGGTGTTA | -0.145
100 | ATGCGGGC | -0.141

Row | Sequence | PBM E-score
101 | ACATCAGT | 0.179
102 | ATGCACGC | 0.233
103 | CGTACAAC | 0.165
104 | GATCGCCC | -0.171
105 | ACTAGGTC | -0.0173
106 | TCTTATCA | 0.238
107 | CGATTTAC | 0.132
108 | AATGTTTA | 0.139
109 | ATTACCCA | 0.0535
110 | CGACGGCC | -0.173
111 | ACGAGCCG | -0.0783
112 | ACAAGCTA | 0.0493
113 | TGAATTAA | 0.235
114 | CCTTCACC | -0.303
115 | AGATTGGG | -0.00147
116 | ACGGGGTG | -0.175
117 | AAAACGCT | 0.121
118 | AGGAATTC | -0.187
119 | ACCGTCCA | -0.257
120 | CAACTATA | 0.105
121 | CACCGCGA | -0.0959
122 | ATGCAGCA | -0.0878
123 | CAACGGTG | -0.327
124 | AAAATTTC | 0.0871
125 | ACGTCAAT | 0.46

Row | Sequence | PBM E-score
126 | CCTCGGCG | -0.0614
127 | AACGGTCG | -0.0357
128 | AAGTCGAC | 0.0592
129 | AGGAGCCC | -0.142
130 | TGGGCTAA | -0.139
131 | AAAAAAAG | 0.0989
132 | AAAACACA | 0.111
133 | CCTCAGTC | -0.14
134 | AAATGCTC | 0.0109
135 | CTTCTTAA | 0.183
136 | AGCAATTC | -0.00484
137 | AGGGCGCG | -0.166
138 | GATGAAAA | 0.0883
139 | CTTCAACA | 0.0249
140 | CGCCCGAA | -0.156
141 | AAACTCAG | -0.0861
142 | CCACCATC | -0.309
143 | ATTCCATA | 0.208
144 | GGAGAAAC | -0.101
145 | TCACCGGA | -0.0135
146 | CCCCACAC | -0.153
147 | CCCCTTTC | -0.318
148 | ACATAGAT | 0.0762
149 | CGCGGCGC | 0.0106
150 | ATCGCTGA | -0.0744

Row | Sequence | PBM E-score
151 | CAAGAGAC | -0.257
152 | ATGTGATG | 0.0759
153 | ATCAAAGC | -0.062
154 | TAGCGAAA | 0.16
155 | TAGCTACA | 0.13
156 | ACAGCTGT | -0.245
157 | TCGGCCGA | -0.13
158 | AGCCCAGG | -0.331
159 | TCCAGACA | -0.215
160 | GACTTGTA | -0.168
161 | AACTGAGT | -0.0287
162 | CCTCCTCA | -0.248
163 | AATGGTAT | 0.0827
164 | AGACACGC | 0.126
165 | GTAACTCA | 0.0667
166 | GAGACGCC | -0.0776
167 | ACACTGCG | 0.132
168 | CAAACGGA | -0.151
169 | AAGGAGGG | -0.182
170 | CTACCTCC | -0.12
171 | AAAGTGCA | 0.152
172 | AAAAAGGC | 0.012
173 | ACTGCCCT | -0.232
174 | ACCCATAC | 0.0715
175 | CGTGGCCC | 0.0251

Row | Sequence | PBM E-score
176 | AATCTCGA | -0.00957
177 | CGGATAAG | -0.258
178 | GGGGTGCA | -0.175
179 | CGACTGCG | -0.222
180 | ACCATATA | 0.214
181 | CGAAACAA | 0.116
182 | ACCCTAGT | -0.038
183 | ACCAAATG | 0.034
184 | GTCATGAC | 0.392
185 | AAGAGCGA | -0.182
186 | GAAACTCA | 0.0159
187 | GCAATCCA | 0.0586
188 | ATTTCGAC | 0.0685
189 | GGGCCCAC | -0.154
190 | ACCGCTCA | 0.0832
191 | AATTTGAT | 0.155
192 | CGTCGCTC | 0.0409
193 | CGGGAGTA | -0.145
194 | GCAACAGC | -0.141
195 | ACTCGGAA | -0.0833
196 | ACAACCGC | 0.0415
197 | TTCAGCAA | 0.194
198 | CCCCAATC | -0.0519
199 | TATCGGCA | -0.103
200 | ATAACTAA | 0.221

Row | Sequence | PBM E-score
201 | CACGTCAG | 0.462
202 | ATGTTTAC | 0.18
203 | CGTAGGAG | 0.208
204 | ACTGGTCC | -0.224
205 | TCCATCAA | 0.108
206 | GGAGGTGA | 0.0757
207 | AAACCTTG | 0.0199
208 | GGCTGCAC | -0.158
209 | GGCATTAA | -0.124
210 | AGTCAACC | -0.212
211 | GATGCTTA | -0.0959
212 | GCGCAGAA | 0.168
213 | AAGTATCT | 0.0671
214 | CGCTCAAC | -0.0742
215 | ACCCCCGC | -0.194
216 | AGCAGGAT | -0.186
217 | ATAATAAT | 0.214
218 | ACATTCGA | -0.027
219 | GTTGGGAA | -0.0188
